According to patent publication US8415399B2, “Retrovirus-infection inhibitor” (Nagasaki University, priority 2006, dated 2013):

System: NP2/CD4/X4 cell
Experiment: Cytotoxicity test: cell count, cell proliferation
Conditions: NP2/CD4/X4 cell, Example 3

With `CC(C)=CCC/C(C)=C/CC/C(C)=C/CC/C(C)=C/C(=O)O` [GGA, geranylgeranoic acid] as the compound, how does the “cell proliferation suppressed to (relative to untreated)” value (20 μM) read?
The value was 55%.

For `CC(C)=CCC/C(C)=C/CC/C(C)=C/C=C/C(C)=C/C(=O)O` [NIK-333], which cell proliferation (5 μM) is on record?
The cell proliferation was “scarcely influenced”.

`CC1=C(/C=C/C(C)=C/C=C/C(C)=C/C(=O)Nc2ccc(O)cc2)C(C)(C)CCC1` [fenretinide, 4-Hydroxyphenylretinoid, reference compound] was tested. Which “cell proliferation decreased to (relative to untreated)” value (2 μM) did it give?
The value was 10%.
